Consider 8 sequences from the supplement of paper PMC12230231.

± gives the standard deviation of the averaged measurements. Restriction of a single-cycle SIVsab GFP reporter by TRIM5α v1-loop variants in CRFK cells. Human variants: read share among cells still uninfected after two challenges over input, higher = gained restriction. Rhesus variants: share among infected cells over input, higher = lost restriction. Reporter dose not given per row. No active / inactive call per row; the paper calls a change when both replicates lie above its controls (mean + 2 SD of stop or wild-type variants, or the top frameshift score). Residues outside the varied loop are taken from Swiss-Prot. The paper reads the human single-substitution scores as noise; they and the rhesus combinations repeat poorly (rank correlation 0.3 to 0.4), indel scores repeat only for the top variants, rhesus substitutions well (0.9).

This series concerns SIVsab (simian immunodeficiency virus of sabaeus monkeys), single-cycle GFP reporter, in CRFK cells. The experiment in a line: enrichment among uninfected cells over input (fold); higher = stronger restriction. The conditions noted are these: library: insertions and deletions. As to the method:
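Pools of CRFK cells expressing variants of the TRIM5α v1 loop were challenged with the single-cycle reporter, sorted by GFP and sequenced; mean of two replicates.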
Take “MASGILVNVKEEVTCPICLELLTQPLSLDCGHSFCQACLTANHKKSMLDKGESSCPVCRISYQPENIRPNRHVANIVEKLREVKLSPEGQKVDHCARHGEKLLLFCQEDGKVICWLCERSQEHRGHHTFLTEEVAREYQVKLQAALEMLRQKQQEAEELEADIREEKASWKTQIQYDKTNVLADFEQLRDILDWEESNELQNLEKEEEDILKSLTNSETEMVQQTQSLRELISDLEHRLQGSVMELLQGVDGVIKRTENVTLKKPETFPKNQRRVFRAPDLKGMLEVFRELTDVRRYWVDVTVAPNNISCAVISEDKRQVSSPKPQIIYGARGTRYQTFVNFNYYCTGILGSQSITSGKHYWEVDVSKKTAWILGVCAGFQPDAMCNIEKNENYQPKYGYWVIGLEEGVKCSAFQDSSFHTPSVPFIVPLSVIICPDRVGVFLDYEACTVSFFNITNHGFLIYKFSHCSFSQPVFPYLNPRKCGVPMTLCSPSS [human TRIM5α, 1-codon duplication at 344]”: the enrichment was 0.355 ± 0.12.

Sequence “MASGILVNVKEEVTCPICLELLTQPLSLDCGHSFCQACLTANHKKSMLDKGESSCPVCRISYQPENIRPNRHVANIVEKLREVKLSPEGQKVDHCARHGEKLLLFCQEDGKVICWLCERSQEHRGHHTFLTEEVAREYQVKLQAALEMLRQKQQEAEELEADIREEKASWKTQIQYDKTNVLADFEQLRDILDWEESNELQNLEKEEEDILKSLTNSETEMVQQTQSLRELISDLEHRLQGSVMELLQGVDGVIKRTENVTLKKPETFPKNQRRVFRAPDLKGMLEVFRELTDVRRYWVDVTVAPNNISCAVISEDKRQVSSPKPQIIYGARGTRYQTFVNFQSITSGKHYWEVDVSKKTAWILGVCAGFQPDAMCNIEKNENYQPKYGYWVIGLEEGVKCSAFQDSSFHTPSVPFIVPLSVIICPDRVGVFLDYEACTVSFFNITNHGFLIYKFSHCSFSQPVFPYLNPRKCGVPMTLCSPSS [human TRIM5α, 9-codon deletion at 343]” gave an enrichment of 4.03 ± 4.2.

On to “MASGILVNVKEEVTCPICLELLTQPLSLDCGHSFCQACLTANHKKSMLDKGESSCPVCRISYQPENIRPNRHVANIVEKLREVKLSPEGQKVDHCARHGEKLLLFCQEDGKVICWLCERSQEHRGHHTFLTEEVAREYQVKLQAALEMLRQKQQEAEELEADIREEKASWKTQIQYDKTNVLADFEQLRDILDWEESNELQNLEKEEEDILKSLTNSETEMVQQTQSLRELISDLEHRLQGSVMELLQGVDGVIKRTENVTLKKPETFPKNQRRVFRAPDLKGMLEVFRELTDVRRYWVDVTVAPNNISCAVISEDKRQVSSPKPQIIYGARGTRYQTFVNFQTFVNFNYCTGILGSQSITSGKHYWEVDVSKKTAWILGVCAGFQPDAMCNIEKNENYQPKYGYWVIGLEEGVKCSAFQDSSFHTPSVPFIVPLSVIICPDRVGVFLDYEACTVSFFNITNHGFLIYKFSHCSFSQPVFPYLNPRKCGVPMTLCSPSS [human TRIM5α, 6-codon duplication at 337]”, for which the enrichment was 1.03 ± 0.8.

Sequence “MASGILVNVKEEVTCPICLELLTQPLSLDCGHSFCQACLTANHKKSMLDKGESSCPVCRISYQPENIRPNRHVANIVEKLREVKLSPEGQKVDHCARHGEKLLLFCQEDGKVICWLCERSQEHRGHHTFLTEEVAREYQVKLQAALEMLRQKQQEAEELEADIREEKASWKTQIQYDKTNVLADFEQLRDILDWEESNELQNLEKEEEDILKSLTNSETEMVQQTQSLRELISDLEHRLQGSVMELLQGVDGVIKRTENVTLKKPETFPKNQRRVFRAPDLKGMLEVFRELTDVRRYWVDVTVAPNNISCAVISEDKRQVSSPKPQIIYGARGTRYQTFVNFRYQTFVNFNYCTGILGSQSITSGKHYWEVDVSKKTAWILGVCAGFQPDAMCNIEKNENYQPKYGYWVIGLEEGVKCSAFQDSSFHTPSVPFIVPLSVIICPDRVGVFLDYEACTVSFFNITNHGFLIYKFSHCSFSQPVFPYLNPRKCGVPMTLCSPSS [human TRIM5α, 8-codon duplication at 335]” displayed an enrichment of 0.547 ± 0.16.

Take “MASGILVNVKEEVTCPICLELLTQPLSLDCGHSFCQACLTANHKKSMLDKGESSCPVCRISYQPENIRPNRHVANIVEKLREVKLSPEGQKVDHCARHGEKLLLFCQEDGKVICWLCERSQEHRGHHTFLTEEVAREYQVKLQAALEMLRQKQQEAEELEADIREEKASWKTQIQYDKTNVLADFEQLRDILDWEESNELQNLEKEEEDILKSLTNSETEMVQQTQSLRELISDLEHRLQGSVMELLQGVDGVIKRTENVTLKKPETFPKNQRRVFRAPDLKGMLEVFRELTDVRRYWVDVTVAPNNISCAVISEDKRQVSSPKPQIIYGARGTRYQTFVNFSQSITSGKHYWEVDVSKKTAWILGVCAGFQPDAMCNIEKNENYQPKYGYWVIGLEEGVKCSAFQDSSFHTPSVPFIVPLSVIICPDRVGVFLDYEACTVSFFNITNHGFLIYKFSHCSFSQPVFPYLNPRKCGVPMTLCSPSS [human TRIM5α, 8-codon deletion at 343]”: the enrichment turned out to be 4.21 ± 4.7.

Sequence “MASGILVNVKEEVTCPICLELLTQPLSLDCGHSFCQACLTANHKKSMLDKGESSCPVCRISYQPENIRPNRHVANIVEKLREVKLSPEGQKVDHCARHGEKLLLFCQEDGKVICWLCERSQEHRGHHTFLTEEVAREYQVKLQAALEMLRQKQQEAEELEADIREEKASWKTQIQYDKTNVLADFEQLRDILDWEESNELQNLEKEEEDILKSLTNSETEMVQQTQSLRELISDLEHRLQGSVMELLQGVDGVIKRTENVTLKKPETFPKNQRRVFRAPDLKGMLEVFRELTDVRRYWVDVTVAPNNISCAVISEDKRQVSSPKPQIIYGARGTRYQTFVNFTFVNFNYCTGILGSQSITSGKHYWEVDVSKKTAWILGVCAGFQPDAMCNIEKNENYQPKYGYWVIGLEEGVKCSAFQDSSFHTPSVPFIVPLSVIICPDRVGVFLDYEACTVSFFNITNHGFLIYKFSHCSFSQPVFPYLNPRKCGVPMTLCSPSS [human TRIM5α, 5-codon duplication at 338]” came in with an enrichment of 0.577 ± 0.32.

On to “MASGILVNVKEEVTCPICLELLTQPLSLDCGHSFCQACLTANHKKSMLDKGESSCPVCRISYQPENIRPNRHVANIVEKLREVKLSPEGQKVDHCARHGEKLLLFCQEDGKVICWLCERSQEHRGHHTFLTEEVAREYQVKLQAALEMLRQKQQEAEELEADIREEKASWKTQIQYDKTNVLADFEQLRDILDWEESNELQNLEKEEEDILKSLTNSETEMVQQTQSLRELISDLEHRLQGSVMELLQGVDGVIKRTENVTLKKPETFPKNQRRVFRAPDLKGMLEVFRELTDVRRYWVDVTVAPNNISCAVISEDKRQVSSPKPQIIYGARGTRYQTFVNFTGILGSQSITSGKHYWEVDVSKKTAWILGVCAGFQPDAMCNIEKNENYQPKYGYWVIGLEEGVKCSAFQDSSFHTPSVPFIVPLSVIICPDRVGVFLDYEACTVSFFNITNHGFLIYKFSHCSFSQPVFPYLNPRKCGVPMTLCSPSS [human TRIM5α, 3-codon deletion at 343]”, for which the enrichment came to 0.7254 ± 0.00073.

Sequence “MASGILVNVKEEVTCPICLELLTQPLSLDCGHSFCQACLTANHKKSMLDKGESSCPVCRISYQPENIRPNRHVANIVEKLREVKLSPEGQKVDHCARHGEKLLLFCQEDGKVICWLCERSQEHRGHHTFLTEEVAREYQVKLQAALEMLRQKQQEAEELEADIREEKASWKTQIQYDKTNVLADFEQLRDILDWEESNELQNLEKEEEDILKSLTNSETEMVQQTQSLRELISDLEHRLQGSVMELLQGVDGVIKRTENVTLKKPETFPKNQRRVFRAPDLKGMLEVFRELTDVRRYWVDVTVAPNNISCAVISEDKRQVSSPKPQIIYGARGTRYQTFVNFTRYQTFVNFNYCTGILGSQSITSGKHYWEVDVSKKTAWILGVCAGFQPDAMCNIEKNENYQPKYGYWVIGLEEGVKCSAFQDSSFHTPSVPFIVPLSVIICPDRVGVFLDYEACTVSFFNITNHGFLIYKFSHCSFSQPVFPYLNPRKCGVPMTLCSPSS [human TRIM5α, 9-codon duplication at 334]” had an enrichment of 0.117 ± 0.099.
